# From the supplement of paper PMC4604168 (melanoma cell lines)
# Some of the results follow. Many values rest on one well or one pass, so single values are uncertain.
# System: C32
# Test: cell count relative to DMSO control; melanoma cells; higher = more viable cells
# Details: library dose: low library concentration; 72 h
# 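Further: cell number obtained by counting DAPI-stained nuclei in high-throughput microscope images with image analysis software, screen run in 1,536-well plates.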
row,Compound,cell count [%]
1,"C#Cc1cccc(Nc2ncnc3cc(OCCOC)c(OCCOC)cc23)c1 [erlotinib] + C/C(O)=C(\C#N)C(=O)Nc1cc(Br)ccc1Br [LFM-A13] (first compound 0.8 µM, partner dose 2 µM)",104
2,"Oc1nc(-c2ccc(C(F)(F)F)cc2)nc2c1CSCC2 + O=C(Oc1ccc([N+](=O)[O-])cc1)N1CCC(C(O)(c2ccc3c(c2)OCO3)c2ccc3c(c2)OCO3)CC1 [JZL184] (first compound 2 µM, partner dose 1 µM)",124
3,"C[C@@H]1CCN(C(=O)CC#N)C[C@@H]1N(C)c1ncnc2[nH]ccc12 + Cc1cc(SCc2sc(-c3ccc(C(F)(F)F)c(F)c3)nc2C)ccc1OCC(=O)O [GW0742] (first compound 1 µM, partner dose 2 µM)",103
4,"COc1cc2ncnc(Nc3ccc(Oc4ccccc4)cc3)c2cc1OC + O=C(Oc1ccc([N+](=O)[O-])cc1)N1CCC(C(O)(c2ccc3c(c2)OCO3)c2ccc3c(c2)OCO3)CC1 [JZL184] (first compound 2 µM, partner dose 1 µM)",100
5,"C[C@@H]1CCN(C(=O)CC#N)C[C@@H]1N(C)c1ncnc2[nH]ccc12 + C/C(O)=C(\C#N)C(=O)Nc1cc(Br)ccc1Br [LFM-A13] (first compound 1 µM, partner dose 2 µM)",100
6,"COCC[n+]1c2c(n(Cc3cnccn3)c1C)C(=O)c1ccccc1C2=O + C/C(O)=C(\C#N)C(=O)Nc1cc(Br)ccc1Br [LFM-A13] (first compound 0.0004 µM, partner dose 2 µM)",96.7
